# Laboratory results: ChEMBL document CHEMBL4888484, “Replenishing the malaria drug discovery pipeline: Screening and hit evaluation of the MMV Hit Generation Library 1 (HGL1) against asexual blood stage Plasmodium falciparum ,using a nano luciferase reporter read-out” (2022)
# Among all 150,000 compounds or so, about 540 (0.36%) showed an effect of 50% or more. This is one part of the list.
# Test system: Plasmodium falciparum
# Assay: Primary screen in NF54 nanoGlo assay, in single point, at 2uM, 72h; a lower Z score goes with more inhibition
# Type: functional, Erythrocyte
# Settings: timepoint 72 hour
SMILES,% Inhibition [%],Z score
CC(C)Cn1c(C(=O)NC(C)C)nnc1N1CCC[C@H](C(N)=O)C1,8,-0.84
CCOC(=O)c1ccc(NC(=O)c2cc(C)nc3c2c(=O)n(C)c(=O)n3C)cc1,-7,0.95
Cc1ccccc1Cn1ccn2nc(-c3ccc4c(c3)OCO4)cc2c1=O,-10,1.27
CN(Cc1ccc2nccnc2c1)C(=O)[C@@H]1CC(=O)Nc2ccc(F)cc21,-8,1.59
Cc1cc(N2CCN(Cc3cc(C)on3)CC2)c2cc(OC(F)(F)F)ccc2n1,-1,0.16
Cc1ccc2cc(CO)c(N3CCC([C@H](C)N4CCCC4)CC3)nc2c1,-14,1.73
CCOC(=O)C1C2CCC(C2)N1S(C)(=O)=O (stereo unspecified),-5,0.57
COc1ccc(CNC(=O)c2ccccc2-c2nnn[nH]2)c(OC)c1,-5,0.93
Cc1ccc(S(=O)(=O)N2CCc3nc(NC(=O)c4cccnc4)sc3C2)cc1,24,-2.26
Cc1cnc(CNC(=O)[C@H]2CC[C@H](C(C)C)CC2)o1,11,-1.42
CCCn1cnc2cc(-c3noc(Cc4cccc(F)c4)n3)ccc21,-12,1.53
Cn1nc(C(=O)N2CCOCC2)cc1C(=O)Nc1ccc(F)cc1F,-38,4.47
Cc1cccc(C)c1OC[C@H](C)NC(=O)N(C)Cc1cnccn1,-4,0.39
Cn1nc(C(F)(F)F)cc1CN1CC(C)(C)CC[C@@H]1CO,-3,0.66
COc1ccc(F)c(-c2nc(N)nc3[nH]ncc23)c1,-7,0.89
C=CCn1c(C)c(CC(=O)Nc2cc(F)ccc2C)c(=O)n2nc(-c3ccc(C)cc3)nc12,7,-0.87
COCc1cc(N(C)Cc2nc(-c3ccccc3)cs2)ncn1,-8,1.02
O=C(O)c1cccc(/N=C(\NCCc2ccccc2)N2CCN(C3CCCCC3)CC2)c1,-18,3.02
COc1ccc(S(=O)(=O)N2CCC(N3CCN(CCO)CC3)CC2)cc1C(C)C,-10,1.64
COc1ccccc1-c1ccc(N2CCC[C@H](CNC(=O)c3cnccn3)C2)nn1,-8,1.5
CN1Cc2ccccc2C[C@H]1C(=O)N1Cc2cnc(-c3ccccc3)nc2C1,-15,2.85
CC(C)CC(=O)Nc1nc(C(=O)N2CCN(Cc3ccccc3)CC2)cs1,-4,0.54
C[C@@]1(C(=O)NC2CCCCCCC2)CCC(=O)N1Cc1ccc(F)cc1Cl,6,-0.8
